The test system of test [1] is HSkMC (human skeletal muscle cells). The test can be described thus: cytotoxicity call (relative viability < 0.9). The note with it: 10 µM.
Test [2] relates to HepG2. The experiment in a line: cytotoxicity call (relative viability < 0.9). The following applies: 10 µM.
The subject of test [3] is S. aureus RN4220. The test can be described thus: growth inhibition call (relative growth <= 0.2). The note with it: 50 µM.

The list shows a part of the results.

With `C[C@@H]1CN([C@H](C)CO)C(=O)c2cc(NC(=O)Nc3ccc(C(F)(F)F)cc3)ccc2O[C@@H](C)CCCCO[C@H]1CN(C)S(=O)(=O)c1ccc(F)cc1`, the cytotoxicity call in test [1] and in test [2] was “inactive” each time. In test [3], the growth inhibition call was “inactive”.
`C[C@H](CO)N1C[C@H](C)[C@@H](CN(C)S(=O)(=O)c2ccc(F)cc2)Oc2ccc(NC(=O)C3CC3)cc2CC1=O`: the cytotoxicity call in test [1] and in test [2] was “inactive” throughout. The growth inhibition call in test [3] is “inactive”.
On to `C=C1C[C@@]23CC[C@@H]4[C@@](C)(CCC[C@@]4(C)C(=O)OC)[C@H]2CC[C@@H]1C3`, for which the cytotoxicity call in test [1] and in test [2] was “inactive” in each case. The growth inhibition call in test [3] is “inactive”.
Turning to `Nc1cnn([C@H]2O[C@@H](COC(=O)c3ccccc3)[C@@H](O)[C@@H]2O)c(=O)n1`, the cytotoxicity call in test [1] and in test [2] was “inactive” in each case. Moreover, the growth inhibition call in test [3] was “inactive”.
Take `COc1ccc(S(=O)(=O)Nc2ccc3c(c2)C(=O)N([C@@H](C)CO)C[C@@H](C)[C@@H](CN(C)C(=O)C2CCCCC2)OCCCC[C@H](C)O3)cc1`: the cytotoxicity call in test [1] and in test [2] was “inactive” each time. The growth inhibition call in test [3] was “inactive”.
`NC1(Cc2ccc(Cl)cc2)CCN(c2ncnc3[nH]ccc23)CC1`: the cytotoxicity call in test [1] is “inactive”. Also, in test [2], the cytotoxicity call was “active”. The growth inhibition call in test [3] was “inactive”.
For `C[C@H]1CN([C@@H](C)CO)S(=O)(=O)c2ccc(Br)cc2O[C@@H]1CN(C)Cc1cccc(F)c1`, the cytotoxicity call in test [1] and in test [2] was “inactive” in each case. Moreover, the growth inhibition call in test [3] was “inactive”.
With `C[C@@H]1CN([C@H](C)CO)C(=O)c2cc(NS(=O)(=O)c3ccc(F)cc3)ccc2O[C@@H](C)CCCCO[C@H]1CN(C)Cc1ccc2c(c1)OCO2`, the cytotoxicity call in test [1] and in test [2] was “inactive” throughout. Also, the growth inhibition call in test [3] was “inactive”.
Turning to `Cc1ccc(S(=O)(=O)Nc2ccc3c(c2)C(=O)N([C@H](C)CO)C[C@@H](C)[C@@H](CN(C)S(=O)(=O)c2ccc(F)cc2)O3)cc1`, the cytotoxicity call in test [1] and in test [2] was “inactive” in each case. The growth inhibition call in test [3] was “inactive”.
As to `COc1cccc(S(=O)(=O)N(C)C[C@H]2Oc3ncc(-c4cccc(C(=O)N(C)C)c4)cc3C(=O)N([C@@H](C)CO)C[C@H]2C)c1`, the cytotoxicity call in test [1] and in test [2] was “inactive” each time. Besides, the growth inhibition call in test [3] is “inactive”.
`C[C@@H]1CCCCO[C@H](CN(C)C(=O)CCC(F)(F)F)[C@H](C)CN([C@H](C)CO)C(=O)c2cc(NS(=O)(=O)c3ccc(F)cc3)ccc2O1`: the cytotoxicity call in test [1] and in test [2] was “inactive” in each case. Besides, the growth inhibition call in test [3] was “inactive”.
Regarding `C[C@@H]1CN([C@@H](C)CO)C(=O)c2cc(NC(=O)C3CC3)ccc2O[C@@H]1CN(C)S(=O)(=O)c1cccs1`, the cytotoxicity call in test [1] and in test [2] was “inactive” in each case. The growth inhibition call in test [3] was “inactive”.
For `CC(C)NC(=O)Nc1ccc2c(c1)C(=O)N([C@@H](C)CO)C[C@H](C)[C@H](CN(C)S(=O)(=O)c1cn(C)cn1)OCCCC[C@H](C)O2`, the cytotoxicity call in test [1] and in test [2] was “inactive” in each case. Moreover, the growth inhibition call in test [3] was “inactive”.
With `COc1ccc2c3c(n(c2c1)C)[C@H](CO)N(C[C@]13CCN(CC1)S(=O)(=O)c1cn(cn1)C)C(=O)Nc1ccc(cc1)F`, the cytotoxicity call in test [1] and in test [2] was “inactive” throughout. Further, the growth inhibition call in test [3] is “inactive”.
`COc1cccc(S(=O)(=O)N(C)C[C@H]2Oc3ncc(C#CCN(C)C)cc3C(=O)N([C@H](C)CO)C[C@H]2C)c1`: the cytotoxicity call in test [1] and in test [2] was “inactive” throughout. For the same compound, in test [3], the growth inhibition call was “inactive”.
With `COc1ccc(S(=O)(=O)N(C)C[C@H]2OCCCC[C@H](C)Oc3ccc(NC(=O)Nc4ccc(F)cc4)cc3C(=O)N([C@@H](C)CO)C[C@H]2C)cc1`, the cytotoxicity call in test [1] and in test [2] was “inactive” each time. The growth inhibition call in test [3] is “inactive”.
For the compound `Cc1ccc(S(=O)(=O)Nc2ccc3c(c2)CC(=O)N([C@H](C)CO)C[C@H](C)[C@H](CN(C)CC2CC2)O3)cc1`, the cytotoxicity call in test [1] and in test [2] was “inactive” throughout. Moreover, the growth inhibition call in test [3] is “inactive”.
In the case of `CCN(CC)CCNC(=O)C(=O)NC1CC1`, the cytotoxicity call in test [1] and in test [2] was “inactive” throughout. In addition, the growth inhibition call in test [3] is “inactive”.
Take `C[C@@H]1CCCCO[C@H](CN(C)C(=O)Nc2ccc(C(F)(F)F)cc2)[C@H](C)CN([C@@H](C)CO)C(=O)c2cc(NC(=O)CCC(F)(F)F)ccc2O1`: the cytotoxicity call in test [1] was “inactive”. Besides, in test [2], the cytotoxicity call was “active”. In addition, the growth inhibition call in test [3] is “inactive”.
As for `C[C@H](CO)N1C[C@H](C)[C@@H](CN(C)Cc2ccc(Cl)c(Cl)c2)Oc2ccc(NC(=O)Cc3cn(C)c4ccccc34)cc2CC1=O`, the cytotoxicity call in test [1] and in test [2] was “inactive” in each case. In addition, the growth inhibition call in test [3] was “inactive”.
Regarding `CO[C@H]1CN(C)C(=O)c2cc(NS(=O)(=O)c3cn(C)cn3)ccc2OC[C@H](C)N(Cc2cccc(F)c2)C[C@@H]1C`, the cytotoxicity call in test [1] and in test [2] was “inactive” throughout. In addition, the growth inhibition call in test [3] is “inactive”.
In the case of `C[C@@H]1CN([C@H](C)CO)C(=O)c2cc(NC(=O)CCCN(C)C)ccc2O[C@H]1CN(C)S(=O)(=O)c1cccs1`, the cytotoxicity call in test [1] and in test [2] was “inactive” throughout. Besides, the growth inhibition call in test [3] is “inactive”.
On to `C[C@H](CO)N1C[C@H](C)[C@@H](CN(C)Cc2ccc3c(c2)OCCN3C)OCc2ccccc2-c2c(n(C)c3ccccc23)C1=O`, for which the cytotoxicity call in test [1] and in test [2] was “inactive” throughout. For the same compound, the growth inhibition call in test [3] was “inactive”.
Turning to `C[C@H]1CN([C@@H](C)CO)C(=O)c2cc(NS(C)(=O)=O)ccc2O[C@H]1CN(C)C(=O)NC1CCCCC1`, the cytotoxicity call in test [1] and in test [2] was “inactive” throughout. The growth inhibition call in test [3] is “inactive”.
With `C[C@@H]1CN([C@H](C)CO)C(=O)c2cc(NC(=O)Cn3cnnn3)ccc2O[C@@H]1CN(C)Cc1ccc(-c2ccccc2)cc1`, the cytotoxicity call in test [1] and in test [2] was “inactive” in each case. Besides, the growth inhibition call in test [3] is “inactive”.
On to `COc1ccc(NC(=O)Nc2ccc3c(c2)CC(=O)N([C@H](C)CO)C[C@@H](C)[C@H](CN(C)Cc2ccc(-c4ccccc4)cc2)O3)cc1`, for which the cytotoxicity call in test [1] and in test [2] was “inactive” throughout. For the same compound, in test [3], the growth inhibition call was “inactive”.
For the compound `C[C@H](CO)N1C[C@H](C)[C@@H](CN(C)S(C)(=O)=O)Oc2c(NC(=O)Nc3ccc(F)cc3)cccc2C1=O`, the cytotoxicity call in test [1] and in test [2] was “inactive” each time. Also, the growth inhibition call in test [3] is “inactive”.

The values above are taken from the antibiotic and cytotoxicity screens of Wong et al. (2023).
